In all, about 150,000 compounds went through this assay and about 540 (0.36%) showed an effect of 50% or more. This is one part of the list.
System: Plasmodium falciparum
Assay: Primary screen in NF54 nanoGlo assay, in single point, at 2uM, 72h; a lower Z score goes with more inhibition
Type: functional, Erythrocyte
Details: timepoint 72 hour

Compound	% Inhibition [%]	Z score
CN(C)Cc1ccnc(NCc2csnn2)c1	-5	0.45
c1csc(Cn2ncc3[nH]c(C4CCCC4)nc32)c1	9	-1.67
CNC(=O)COc1cccc(NC(=O)c2cccc3c4c([nH]c23)CCCCC4)c1	-8	0.96
CCOC(=O)c1cn([C@H]2CC(=O)N(c3ccccc3)C2=O)nn1	35	-0.88
CN1CCN2C(=O)c3ccccc3OCC[C@@H]3CC[C@@H](NC(=O)C4CCOCC4)[C@@H](CNC(=O)[C@@H]2C1)O3	5	-0.78
CC[C@H](NC(=O)N1CC(NC(C)=O)C1)c1nccs1	-11	1.26
Cc1cc(N2CCC(c3nnc(CN4CCN(C)CC4)n3C)CC2)ncn1	-9	1.13
COc1c(C)cc(-c2cccc(C(=O)N(C)Cc3cc(C)[nH]n3)c2)cc1C	-8	0.77
CC(C)c1nnsc1CNC(=O)Nc1ccnn1C1CCCC1	-11	1.52
CCCC(=O)N1CCCN(c2ccc(=O)n(-c3ccc(C)cc3)n2)CC1	30	-3.46
Nc1c2c(-c3ccc(Cl)cc3)nc(NCc3ccccc3)nc2nn1-c1cccc(F)c1	-18	3.56
COc1cc(CN2CCOC[C@@H](O)C2)ccc1OCc1ccccc1	-15	1.39
O=C(NC1CCN(Cc2ccc(F)c(F)c2)CC1)C(=O)c1ccc2c(c1)CCC2	0	0
CNC(=O)[C@@H](C)CN(C)C(=O)c1cccc(-c2ncn[nH]2)c1	-8	1.07
O=S(=O)(c1cccc(Cl)c1)N1CCC[C@@H]2C[C@@]21CO	-1	0.13
CO[C@@H]1CCC[C@@H]2CN(C(=O)c3n[nH]c4ccccc34)C[C@@H]21	3	-0.32
O=C(NCCn1nnc2ccc(F)cc2c1=O)N1CCOCC1	-12	2.12
O=C(c1c(Cl)cccc1Cl)N1CCC(Cc2ccccc2)CC1	-5	0.57
O=C(c1ccc(-c2ccsc2)cc1)N1CCC[C@H](S(=O)(=O)c2ccc(F)cc2)C1	-10	1.25
Cc1nccc(NC(=O)C2OCCC2C)c1Cl (stereo not given)	-17	3.16
O=c1[nH]nc(CCNc2ccc(Br)cn2)[nH]1	-5	0.74
O=C(c1cc(C(F)F)ncn1)N1CCN(c2ncc(F)cn2)CC1	21	-2.62

Compound	% Inhibition [%]	Z score
Brc1ccc2[nH]cc(Cc3ccccn3)c2c1	4	-0.61
COc1ccc(S(=O)(=O)N(C)Cc2ccn(C3CCCC3)n2)cc1	-9	1.23
CN(CC1(c2ccccc2)CC1)C(=O)c1cccc2cn[nH]c12	1	-0.19
O=C(c1cc(Cl)cc(Cl)c1)N1CCN(c2nccc(-c3ccc4c(c3)OCO4)n2)CC1	-12	1.68
CCN(Cc1nn(-c2ccccc2)c2c1CN(Cc1cc(F)ccc1F)CC2)C(=O)c1cccc(Cl)c1	-16	2.35
CCCc1cc(C(=O)N2CCNC[C@H]2C(=O)N2CCN(C)CC2)ccn1	-12	2.1
Cc1c(C(=O)NC[C@H]2CCC[C@@H](CO)C2)cnn1C(C)C	-5	0.7
CC(C)N1CCN([C@H]2CCOC3(CCN(C(=O)CCC4CCCC4)CC3)C2)CC1	-8	1.43
CCN(CC)c1ccc(NC(=O)Cn2nc(N3CCCCCC3)c3ccccc3c2=O)c(C)c1	-15	2.29
Cc1cc(=O)[nH]c(CNc2ccc(C(F)(F)F)nn2)n1	1	-0.18
COC1CCC(Nc2ncnc(N)c2Cl)C1 (stereo not given)	-4	0.78
Cc1cc(-c2noc(CC3CCC(=O)CC3)n2)cc2nc[nH]c12	-10	1.58
COc1ccc(CCNC(=O)c2c[nH]c(=O)n(C)c2=O)cc1OC	-1	0.18
CCCOc1ccc2ccccc2c1CN(C)C(=O)CCc1c(C)nn(CCC#N)c1C	-3	0.31
Cc1cc(C(=O)N2CCN(C(=O)CC(C)C)[C@@H]3CS(=O)(=O)C[C@@H]32)[nH]n1	8	-1.07
O=C(CN1CCOC1=O)N[C@H]1CC(=O)N(Cc2cccc3ccccc23)C1	-5	0.81
Cc1ccccc1N(C(=O)c1cncc(-n2ccnn2)c1)C(C)C	-4	0.67
COCC1(CNC(=O)Nc2c(F)cccc2OC)CCC1	-4	0.6
O=C(c1ccc2cccc(F)c2n1)N1CCC[C@@](O)(CO)CC1	-6	1.14
Cn1c(CCc2ccccc2NS(=O)(=O)c2ccc3c(c2)CCCC3)nc2ccccc21	-1	0.12
Cc1nc(CC(=O)N2C[C@@H]3c4ccccc4OC[C@]3(CO)C2)cs1	-16	1.45
Oc1ccc(Br)cc1CNc1nc2ccccc2[nH]1	23	-2.89

Compound	% Inhibition [%]	Z score
O=C(CCc1ccc2c(c1)CN(S(=O)(=O)c1ccc3c(c1)CCC3)CCO2)N1CCCC1	5	-0.59
O=C1NCCC[C@@H]1NS(=O)(=O)c1ccc(OCC2CCCCC2)cc1	-9	1.35
COc1cc(C(=O)N2CCC[C@@]3(CCCc4ccccc43)C2)ncn1	8	-1.07
Cc1nc(C(=O)N2CC[C@H](Oc3ccncn3)C2)cs1	-7	1.09
FC1(F)CCN(Cc2nc(-c3ccccc3)cs2)CC1	5	-0.99
COCC1(c2noc(-c3oc(CC4CC4)nc3C)n2)CCOCC1	-11	1.48
CN(C)C(=O)O[C@H]1CCN(C(=O)Cc2ccn(-c3ccccc3)n2)C1	-5	0.8
COc1cc2c(-c3ccccc3)c(C)oc2cc1CN1CCN(CCO)CC1	0	-0.01
O=C(c1ccc2cccc(F)c2n1)N1CCC(O)(Cn2ccnc2)CC1	24	-3.21
C=CCN(Cc1cccc(OCC)c1)C(=O)C[C@H]1CNCCO1	-3	0.45
CCOc1cc(N)c(C(=O)O)cc1OCC	-3	0.55
Cc1nc(CNC(=O)Cc2c3c(n(Cc4ccccc4)c2C)CCCC3=O)no1	-17	1.62
CC(=O)Nc1nc(C(=O)N2CC=C(c3ccnn3C)CC2)cs1	-5	0.98
Cc1cc(C(=O)NCC(=O)NCc2ccncc2)c(C)o1	0	-0.07
O=S(=O)(c1ccccc1)N1CCCN(C[C@H]2CCC=CO2)CC1	-9	0.88
CCC(C)(C)OC(=O)c1cccc(C(=O)NC)c1	-14	1.64
O=C(NCc1cc(=O)cc[nH]1)C1CCC2CCCCC2C1 (stereo not given)	11	-1.39
O=C(c1nc2ccc(Cl)cn2c1CN1CCC[C@H](O)C1)N1CCCCCCC1	-20	2.18
CC(C)c1csc(CN2CCC(CCC(=O)Nc3ccccc3Cl)CC2)n1	1	-0.11
CCN(CC1CCN(c2ccccn2)CC1)C(=O)c1cnn(C)c1C	-15	1.28
CCC[C@@H](CC(=O)O)NC(=O)c1cc(C)cc(F)c1	-3	0.31
Cc1nnc(N2CCCc3ccccc32)[nH]c1=O	-13	1.67

Compound	% Inhibition [%]	Z score
COc1ccc(CC(=O)N2CCN(c3nc(CCC(C)C)nc4c3cnn4-c3cccc(Cl)c3)CC2)cc1	-6	0.58
CCn1c(=O)c(C(=O)NCc2ccc(N3CCCC3)cc2)nc2cccnc21	-6	1.03
O=C(NCc1cccnc1N1CCOCC1)c1ncoc1C1CC1	-16	2.15
Cc1nc(NC(=O)N[C@H]2CCCC[C@@H]2c2ccccc2)nn1C	2	-0.24
CC1CC1c1cc(NC(=O)Nc2cnc3c(Br)cccn23)[nH]n1 (stereo not given)	-3	0.34
COC(=O)c1ccc2c(c1)n(Cc1nncn1C(C)C)c(=O)n2CC1CC1	-8	1.62
CCC(=O)N1CCN(C(=O)c2oc(Br)cc2C)C1	-9	1.25
CCc1ccccc1NC(=O)N1CCC(c2nnc(C(=O)Nc3ccc(OC)cc3)s2)CC1	-20	1.83
Cc1c(F)cc(C(=O)NCC(F)(F)F)cc1NCc1cscn1	2	-0.35
CCN(CC)[C@@H](CNC(=O)Cc1csc(C(C)C)n1)c1ccco1	5	-0.41
CC[C@]1(CO)CCCN(c2cncc(N(C)C)n2)C1	6	-0.81
C[C@H]1CCN(Cc2cncs2)CCS1(=O)=O	-19	1.92
c1ccc(Cc2cn[nH]c2[C@H]2CCCNC2)cc1	4	-0.49
Cc1cccc(NC(=O)CN(C)CCC[C@H](C)O)c1C	-3	0.4
O=C(NCCc1c[nH]cn1)Nc1ccnn1C[C@@H]1CC=CCC1	5	-0.93
CCC(C)NC(=O)CCNC(C)c1cc(F)c(F)c(F)c1 (stereo not given)	1	-0.11
CCOC(=O)c1ccc(NS(=O)(=O)C[C@H](OC)C2CC2)c(O)c1	-9	0.78
O=C(NC1CCC(F)(F)CC1)C1CCC1	-18	2.3
Cc1cc(-c2c(-c3ccccc3)ncn2CCNc2ccccc2)[nH]n1	16	-2.12
